# Reference: the supplement of paper PMC3334620
# In all, about 33,000 sequences were measured (“E-score (-0.5 to 0.5)”: median about -0.035, highest 2% from about 0.35 on). The list shows a part of the results.
# Target: T1, Pdr3 (UniProt P33200)
# T1 sequence: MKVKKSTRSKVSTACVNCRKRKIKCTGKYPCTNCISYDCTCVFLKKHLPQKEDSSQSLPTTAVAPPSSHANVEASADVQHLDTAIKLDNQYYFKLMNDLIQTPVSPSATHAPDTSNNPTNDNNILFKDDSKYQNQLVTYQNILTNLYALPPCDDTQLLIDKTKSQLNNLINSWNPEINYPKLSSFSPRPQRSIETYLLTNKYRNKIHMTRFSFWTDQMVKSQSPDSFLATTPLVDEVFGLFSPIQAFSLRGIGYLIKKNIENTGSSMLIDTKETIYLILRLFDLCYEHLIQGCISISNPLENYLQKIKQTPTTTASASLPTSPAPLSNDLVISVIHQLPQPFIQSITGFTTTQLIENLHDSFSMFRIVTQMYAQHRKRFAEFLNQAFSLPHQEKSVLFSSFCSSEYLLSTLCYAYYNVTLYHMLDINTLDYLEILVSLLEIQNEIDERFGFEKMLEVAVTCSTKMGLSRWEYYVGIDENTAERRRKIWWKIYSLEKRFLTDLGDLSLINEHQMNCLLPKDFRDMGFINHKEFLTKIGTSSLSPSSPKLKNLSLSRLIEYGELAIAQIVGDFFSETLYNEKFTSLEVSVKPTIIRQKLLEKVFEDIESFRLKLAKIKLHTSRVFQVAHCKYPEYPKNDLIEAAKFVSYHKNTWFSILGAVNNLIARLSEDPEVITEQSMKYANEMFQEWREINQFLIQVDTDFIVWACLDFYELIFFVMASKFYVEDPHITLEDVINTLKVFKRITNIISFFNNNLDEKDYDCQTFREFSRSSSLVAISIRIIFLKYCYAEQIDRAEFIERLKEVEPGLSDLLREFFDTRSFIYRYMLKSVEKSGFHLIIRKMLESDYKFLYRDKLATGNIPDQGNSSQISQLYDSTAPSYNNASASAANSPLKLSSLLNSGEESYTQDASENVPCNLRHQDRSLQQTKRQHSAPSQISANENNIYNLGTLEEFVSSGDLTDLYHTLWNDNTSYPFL
# Experiment: PBM E-score (8-mer binding enrichment) (E-score (-0.5 to 0.5)); higher = stronger / more preferred TF binding; most listed sequences are background and not binding sites
# Conditions: protein concentration: 200 nM; construct: GST-full length
# How it was run: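 Yeast transcription factors, full-length or as DNA-binding domains, were expressed with a GST tag using PURExpress in vitro transcription/translation. At about 100-200 nM they were applied to universal all-10-mer Agilent arrays, double-stranded by primer extension on fresh or once-stripped slides. Fluorescent anti-GST detected bound protein, and masliner normalised the scans. E-scores for ungapped eight-base words, pooled with reverse complements, came from the Universal PBM Analysis Suite.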
row,Sequence,PBM E-score
1,AGGCGTCC,-0.0756
2,GGCGGAAC,0.467
3,CATCCAGC,-0.137
4,CCATGGCC,-0.0466
5,GAGCTAGA,-0.248
6,AACAAAAG,-0.266
7,CGTGTATA,-0.0324
8,ATAGCGCA,-0.111
9,AAGCGAAG,-0.0806
10,ATGTCTTG,-0.0696
11,AGTGAATG,0.168
12,ACAATCAT,-0.139
13,GCGCAAGA,0.0091
14,TACGATCA,-0.0678
15,CTGCCTTC,-0.0663
16,GCTCACCC,0.118
17,CGGGTCAG,0.285
18,CGCGAAAG,-0.0147
19,CTTACTAA,-0.0756
20,GATGAGAC,0.031
21,CCTATTGA,-0.135
22,AGACCTAT,-0.0458
23,AAGCCCAT,-0.0885
24,AACATCAT,-0.0867
25,AAGGCCAA,-0.156

row,Sequence,PBM E-score
1,TGACGCCA,-0.264
2,GAGCCGAC,-0.104
3,CGCCTATA,-0.018
4,CCTACACC,-0.133
5,GCCTTAGA,-0.136
6,CATATGGA,-0.149
7,AAATTAAT,-0.0501
8,GACGGAGA,0.322
9,ACTAACCC,-0.0175
10,AGTCATCG,-0.0299
11,TCGTGTAA,-0.0424
12,CTGAGAAG,-0.16
13,ATTGCCCA,-0.0638
14,GCGCCAGA,0.00439
15,TCCATTAA,0.0368
16,AAAGTGCG,0.054
17,GTATCCAC,-0.105
18,TTAGCAAA,-0.0871
19,GACATAGA,-0.149
20,CTCAAAAG,-0.026
21,CGTATGCC,-0.0233
22,TACCGCCA,0.146
23,TGTACAAA,0.035
24,AGCTCTGC,-0.217
25,AGCTTGCG,-0.264

row,Sequence,PBM E-score
1,AATGTAGA,-0.0731
2,AGAGTTAG,-0.0312
3,CTGTATAA,-0.0666
4,ATTCATAG,-0.127
5,GCTTGTAC,0.00241
6,CAATTGGC,-0.0526
7,CCGGAGCA,0.401
8,ACCGAACA,0.0134
9,CGCAGCCA,-0.0325
10,TCACAAGA,-0.0373
11,ATGCGTAC,-0.141
12,GTTTGCGA,-0.00951
13,CGCCGAAC,0.265
14,CTGATGAA,-0.179
15,AACCTGTC,-0.153
16,ATTCGACC,-0.0489
17,CGCGTTCC,0.259
18,TGTAATAA,-0.209
19,GAGTGAGA,-0.0116
20,ATAGCCAT,-0.00901
21,AGTTGGGA,-0.205
22,CTACCAGA,-0.0896
23,ACGACACA,-0.146
24,ATAGCTCG,-0.11
25,CAAGTAAG,-0.231

row,Sequence,PBM E-score
1,AAACGATT,-0.0503
2,CAGCGAGG,-0.0395
3,GCATCTGA,-0.143
4,CCATTTGC,-0.0876
5,ACGAACCA,0.0351
6,AGATTCCT,-0.088
7,GCCTATAC,-0.0916
8,CAAGGTGA,-0.107
9,ATAACCGA,-0.0923
10,GCAGTGCC,-0.0598
11,ATATGTCA,0.0771
12,GGTCACGA,-0.0529
13,CGGCAGAA,0.287
14,TGGAACCA,0.188
15,GTTATCCA,0.0459
16,CCATAGAC,-0.189
17,AATTCATA,0.0003
18,CCAGTTAA,0.112
19,CCAAACAG,-0.123
20,GAGTAGAC,-0.125
21,CAAAGCTC,-0.16
22,GAGCGCTA,-0.0559
23,GCCAGGAA,-0.0621
24,AGTGACAT,-0.111
25,GACCGTCC,0.156

row,Sequence,PBM E-score
1,AACACGTA,-0.0579
2,AACGTAGG,-0.183
3,ACGCACTG,-0.118
4,AAAAGACA,0.035
5,AATCATCA,0.0158
6,CATGGAAA,0.0485
7,ACAGCAGG,-0.0446
8,GAGTGGGA,-0.0416
9,CCACGCGG,0.108
10,CCCATTAA,-0.107
11,GAAGCATA,-0.207
12,GCTATTTA,-0.0173
13,ATGACGGA,0.362
14,CTGTTTAC,-0.202
15,ACTCTGCC,-0.19
16,ACCGAGAA,0.129
17,CTCCTAAC,-0.266
18,AAACACCT,-0.139
19,TATCGTGA,-0.0671
20,AGGTGTAC,-0.264
21,AGTTCCAT,0.114
22,GAGTACCA,0.0132
23,GCGCTGAA,-0.0182
24,AAGAAAAA,-0.0818
25,ATGACCTG,-0.119

row,Sequence,PBM E-score
1,ACGCACCG,0.0557
2,CGTTGCGA,-0.0439
3,CTACTGAG,-0.101
4,TCCAAAGA,-0.105
5,CCTCAATA,-0.118
6,ATTACTGA,-0.207
7,AAGATGTG,-0.142
8,GGACTACC,-0.0457
9,ACGCCCAC,-0.0917
10,GGTTGTGA,0.0715
11,TTAGACAA,-0.0013
12,GGCGTCTA,-0.144
13,TAGCTTAA,-0.185
14,ACTATGCA,-0.119
15,TAATATAA,0.209
16,GAAGCGCC,0.181
17,GCTGACTA,-0.209
18,GACGCAAA,0.0344
19,AAGGATGC,-0.165
20,CCTGCTAG,-0.224
21,ACATCTCG,-0.111
22,AGGCATTC,-0.055
23,ATGCGGTC,0.21
24,AATGAGTG,0.0872
25,CTGATCGC,-0.108

row,Sequence,PBM E-score
1,AAGAATCC,0.0141
2,CCATGCGA,-0.0274
3,ATCACTAA,0.00382
4,CCCGCCCC,0.357
5,AGCGGCAA,0.101
6,GAGCCCCA,-0.165
7,AATTGAAC,-0.273
8,ACCCCTGG,-0.1
9,CCATACAG,-0.135
10,ACTATAGA,-0.00222
11,GTCACGCA,-0.0717
12,ACCACCGG,0.269
13,ACTCACTC,-0.0487
14,CAGCAAGC,-0.184
15,CACCACTC,0.165
16,CATTTGCA,-0.0953
17,AAGTTGAA,-0.126
18,CCATACTC,0.0674
19,ATGTCTCG,-0.0638
20,AGAACCTA,-0.27
21,AGTTCAAG,0.0398
22,ACCATCTA,-0.142
